# Data: patent US20260216242A1, “ALPP-SPECIFIC VARIANT ANTIGEN BINDING MOLECULES” (ALMAC DISCOVERY LIMITED, priority 2022, published 2026)
# B1: D10 F05-hFc (S239C T366Y/Y407T) [G4S]3 conjugated to MC-vc-PAB-MMAE (Fc fusion)
# chain 1: QVQLVESGGGLVQPGGSLRLSCAASGSIFSVNTMGWYRQAPGKQRDLVAVATSGGTIHYADSVKGRFTISRDNAKNTVYLQMNSLKPEDTAVYYCNLVVPYGMIAGDHDYWGQGTKVTVSSGGGGSGGGGSGGGGS[human IgG1 Fc with C220S S239C T366Y (EU numbers) not spelt out]
# chain 2: QVQLVESGGGLVQAGGSLRLSCAASGRAFGDYNIGWFRQAPGKEREFVARRTWDGSSTRYDDSVKGRFTVSIDNAKNTAYLQMNSLKTEDTAVYYCAAGRYSRVRGWEYDYWGQGTQVTVSSGGGGSGGGGSGGGGS[human IgG1 Fc with C220S S239C Y407T (EU numbers) not spelt out]
# modifications: here or on the partner: MC-vc-PAB-MMAE on Cys 239 (S239C, EU numbering)
# B2: D10 E06-hFc (S239C F405L/K409R) conjugated to MC-vc-PAB-MMAE (Fc fusion, DAR 2)
# chain 1: QVQLVESGGGLVQPGGSLRLSCAASGSIFSVNTMGWYRQAPGKQRDLVAVATSGGTIHYADSVKGRFTISRDNAKNTVYLQMNSLKPEDTAVYYCNLVVPYGMIAGDHDYWGQGTKVTVSSGGGGSGGGGSGGGGS[human IgG1 Fc with changes not spelt out]
# chain 2: QVHLVESGGGLVQAGGSLRLSCAASRRSFSEYAMGWFRQAPGKEREFVAAIGWSGVIEYADSVKGRFTISRDNAKDTVYLQMNSLKPEDTAVYYCAAGLGIRVVSQTPAYWGQGTQVTVSSGGGGSGGGGSGGGGS[human IgG1 Fc with changes not spelt out]
# modifications: here or on the partner: MC-vc-PAB-MMAE on Cys 239 (S239C, EU numbering)
# B3: D10 A06-hFc (S239C F405L/K409R) conjugated to MC-vc-PAB-MMAE (Fc fusion, DAR 2.8)
# chain 1: QVQLVESGGGLVQPGGSLRLSCAASGSIFSVNTMGWYRQAPGKQRDLVAVATSGGTIHYADSVKGRFTISRDNAKNTVYLQMNSLKPEDTAVYYCNLVVPYGMIAGDHDYWGQGTKVTVSSGGGGSGGGGSGGGGS[human IgG1 Fc with changes not spelt out]
# chain 2: QVHLVESGGGLVQAGGSLRLSCAASGRTFLSMGWFRQAPGKEREFVAAISWTGGSTGYADSVKGRFTISRESDKETMYLQMNSLKPEDTAVYYCAARGDVYYGGDDATRYKYWGQGTQVTVSSGGGGSGGGGSGGGGS[human IgG1 Fc with changes not spelt out]
# modifications: here or on the partner: MC-vc-PAB-MMAE on Cys 239 (S239C, EU numbering)
# Target: ALPP/ALPPL2 on ALPP/ALPPL2 positive cancer cells
# Test: cell-based or functional assay
Binder,"% viability remaining, MDA-MB-468 cells [%]","% viability remaining, MKN-1 cells [%]","% viability remaining, NCI-H1651 cells [%]","IC50 at 96 h (nM), cell-killing of MDA-MB-468 cells (Cell Titre Glo) [nM]","IC50 at 96 h (nM), cell-killing of MKN-1 cells (Cell Titre Glo) [nM]","IC50 at 96 h (nM), cell-killing of NCI-H1651 cells (Cell Titre Glo) [nM]","IC50 at 96 h (nM), cell-killing of NCI-N87 cells (Cell Titre Glo) [nM]","IC50 @ 96 h (nM), cell-killing of NCI-H1651 cells (Cell Titre Glo) [nM]"
B1,32,26,31,237,4.5,35.7,> 1000,
B2,,,,,,,,1.2
B3,,,,,,,,10.4
